Measured values published in PMC4336329 (PLoS ONE, 2015).
The whole screen tested about 310,000 compounds, of which about 2,200 (0.71%) showed an effect of 50% or more. The effect is printed as a negative number. This is one part of the list.

Molecular target: human ether-à-go-go-related gene (hERG) potassium channel (human, UniProt Q12809)
Assay: primary screen, population patch clamp on CHO cells stably expressing hERG

human ether-à-go-go-related gene (hERG) potassium channel, sequence (Q12809 whole entry, looked up): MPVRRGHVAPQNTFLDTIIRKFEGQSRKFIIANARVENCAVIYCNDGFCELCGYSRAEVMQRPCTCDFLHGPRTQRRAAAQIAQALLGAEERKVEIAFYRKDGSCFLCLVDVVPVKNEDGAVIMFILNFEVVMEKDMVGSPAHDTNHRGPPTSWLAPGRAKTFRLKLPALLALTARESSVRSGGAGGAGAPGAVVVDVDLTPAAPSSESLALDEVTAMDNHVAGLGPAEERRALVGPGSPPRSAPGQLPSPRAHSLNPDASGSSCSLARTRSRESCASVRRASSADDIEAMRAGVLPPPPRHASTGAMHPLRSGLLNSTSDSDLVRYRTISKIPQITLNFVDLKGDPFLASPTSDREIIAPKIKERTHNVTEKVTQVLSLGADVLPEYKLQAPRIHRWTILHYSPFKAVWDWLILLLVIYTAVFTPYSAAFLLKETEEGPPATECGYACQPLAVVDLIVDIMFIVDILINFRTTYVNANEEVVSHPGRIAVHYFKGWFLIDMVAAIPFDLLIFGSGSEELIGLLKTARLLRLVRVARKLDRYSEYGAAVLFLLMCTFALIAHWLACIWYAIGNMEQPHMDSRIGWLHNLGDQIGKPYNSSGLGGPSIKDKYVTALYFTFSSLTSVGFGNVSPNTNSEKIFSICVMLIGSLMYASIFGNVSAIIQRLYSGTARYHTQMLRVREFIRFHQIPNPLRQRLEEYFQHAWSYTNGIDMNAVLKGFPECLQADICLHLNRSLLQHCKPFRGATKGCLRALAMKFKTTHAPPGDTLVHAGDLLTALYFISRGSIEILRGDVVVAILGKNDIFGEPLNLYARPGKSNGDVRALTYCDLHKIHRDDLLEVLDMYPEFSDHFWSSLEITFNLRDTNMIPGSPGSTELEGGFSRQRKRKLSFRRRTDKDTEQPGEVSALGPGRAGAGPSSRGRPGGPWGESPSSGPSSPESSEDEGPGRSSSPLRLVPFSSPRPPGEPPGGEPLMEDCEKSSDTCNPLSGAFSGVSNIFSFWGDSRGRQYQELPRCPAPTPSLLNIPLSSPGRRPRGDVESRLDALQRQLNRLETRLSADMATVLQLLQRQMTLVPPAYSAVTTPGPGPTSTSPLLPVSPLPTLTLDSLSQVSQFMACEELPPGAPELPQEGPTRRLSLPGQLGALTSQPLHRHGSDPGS

SMILES | hERG current change (%, negative = inhibition) at 1uM
CCCCNC(=O)NNc1nc(Cl)cc(C)c1C#N | 14.7%
O=C1CCC(C(=O)N2CCCCCC2)CN1CCc1ccc(Cl)cc1 (stereo not shown) | 3.33%
O=C(Nc1ccc(F)cc1)c1csc(Cc2ccccc2)n1 | 3.2%
N#Cc1c(-c2ccccc2)ccn(Cc2ccc(Cl)cc2)c1=O | 11.7%
Cc1n[nH]c(C)c1S(=O)(=O)N1CCN(S(=O)(=O)c2ccccc2C#N)CC1 | 11.9%
COc1cc(C2/C(=C(\O)c3ccc4c(c3)OCCO4)C(=O)C(=O)N2Cc2ccccc2)ccc1O (stereo not shown) | 9.85%
CCC(=O)Nc1c(OC(=O)CC)ccc2c(C)cc(=O)oc12 | 12.7%
c1ccc2[nH]c(SCC3CCCCO3)nc2c1 (stereo not shown) | 11.8%
CCOC(=O)c1c(-c2ccc(OC)cc2)csc1NC(=O)CSc1ccccc1 | 0.854%
N#Cc1ccccc1CSc1nc(N2CCCCC2)nc(N2CCCCC2)n1 | 11.1%
CN(C)C(CNC(=O)Cc1cccc(C(F)(F)F)c1)c1ccco1 (stereo not shown) | 6.63%
CCOc1ccc(C=NC23CN4CN(CN(C4)C2)C3)cc1 | 9.28%
O=C(Nc1ccc(F)c(Cl)c1)C1CCCN(c2cnccn2)C1 (stereo not shown) | 1.25%
O=C(/C=C/c1ccc2c(c1)OCO2)c1ccco1 | 11.2%
O=C(O)c1cccc(S(=O)(=O)Nc2ccccc2-c2ccccc2)c1 | 16%
COc1cc(OC)cc(C(=O)NC(=S)N2CCN(c3ccc(C(F)(F)F)cc3[N+](=O)[O-])CC2)c1 | 8.36%
O=C(CC1CCCC1)OCn1nnc2ccccc2c1=O | 8.49%
O=C(O)CCc1nn2c3ccccc3n(CC(=O)c3cccs3)c2nc1=O | 9.07%
COc1ccc(OC)c(N(CC(=O)Nc2ccc3c(c2)OCO3)S(=O)(=O)c2ccccc2)c1 | 4.77%
CCN(CC)Cc1c(C(=O)N/N=C/c2cccc(OCc3cccc(Cl)c3)c2)nnn1-c1nonc1N | -11.7%
Cc1ccc2nc(SCC(=O)Nc3cc([N+](=O)[O-])ccc3F)[nH]c2c1 | -2.2%
COC(=O)/C(=N\Nc1ccccc1)Sc1nnc(-c2ccc(OC)cc2)n1C | 8.26%
OCC(O)/C=N/Nc1nc(N2CCCCC2)nc(N2CCCCC2)n1 (stereo not shown) | 10.7%

SMILES | hERG current change (%, negative = inhibition) at 1uM
O=C(CC(c1ccc(F)cc1)c1ccco1)N1CCCC1 (stereo not shown) | 8.45%
CCn1c(SCc2nc3ccccc3s2)nc2cc(S(=O)(=O)N3CCOCC3)ccc21 | -1.06%
Cc1ccc(S(=O)(=O)NCC(=O)N(CC(=O)NCC2CCCO2)C2CCCC2)cc1 (stereo not shown) | -2.76%
COc1ccc(-n2cc(-c3ccccc3)nc2SC)cc1 | 0.094%
Cc1ccc(C)c(N2CCN(CC(=O)Nc3ccc([N+](=O)[O-])cc3C(=O)Nc3ccccc3F)CC2)c1 | -20.3%
O=C(Nc1ccccc1Oc1ccccc1)c1cccs1 | 7.76%
Cc1cccc(N=C2NC(=O)CS2)c1C | 10.8%
COc1ccc(CN2CCC(=O)N(CCO)CC2)cc1OC | -3.62%
CCCc1cc(=O)oc2cc(OCC(=O)NC(Cc3ccc(Cl)cc3)C(=O)O)ccc12 (stereo not shown) | 14.8%
Cc1nn(C(C)(C)C)c(OC(=O)c2cccs2)c1Sc1ccccc1 | -7.79%
O=C(Cc1ccccc1)NNC(=O)Cc1ccccc1 | 12.4%
Cc1ccc(Cl)cc1N1CCN(C(=O)COc2ccc(S(=O)(=O)NC(C)C)cc2)CC1 | 27.5%
O=[n+]1cc(-c2ccc(F)cc2)n([O-])c2c1CCC2 | 13.4%
CCC1CCC(C(=O)NNC(=O)OC)CC1 (stereo not shown) | 5.41%
O=C1CCN(CCc2ccccc2)CCN1CCSc1ccccc1 | -36.9%
COc1ccc(C2=CC(=O)CC(c3ccc(F)cc3)C2)cn1 (stereo not shown) | 8.39%
CCN(CCNC(=O)c1ccc(C#N)cc1)c1cccc(C)c1 | 1.68%
CCOC(=O)C1=C(CC)Nc2ccccc2N=C1NC(=O)c1ccc(S(=O)(=O)N2CCCC2)cc1 | 11.2%
CC(NC(=O)c1cc(-c2ccncc2)nc2ccc(Cl)cc12)C1CCCO1 (stereo not shown) | 9.3%
O=C(O)c1nn(-c2ccc(F)cc2)ccc1=O | 20.6%
O=C(COc1ccc(Cl)cc1)NCc1nnc(SCC(=O)NC2CCCCC2)o1 | 15.6%
Cc1csc(C(C#N)C(=O)c2cc3ccccc3o2)n1 (stereo not shown) | -1.01%
CCc1ccccc1N1C(=O)CC(N2CCc3ccccc32)C1=O (stereo not shown) | 5.28%
